The values below come from publication PMC4336329 (PLoS ONE, 2015).

The structures appear in SMILES notation. In all, about 310,000 compounds went through this assay and about 2,200 (0.71%) showed an effect of 50% or more. The effect is printed as a negative number. This is one part of the list.

human ether-à-go-go-related gene (hERG) potassium channel, sequence (Q12809 whole entry, looked up): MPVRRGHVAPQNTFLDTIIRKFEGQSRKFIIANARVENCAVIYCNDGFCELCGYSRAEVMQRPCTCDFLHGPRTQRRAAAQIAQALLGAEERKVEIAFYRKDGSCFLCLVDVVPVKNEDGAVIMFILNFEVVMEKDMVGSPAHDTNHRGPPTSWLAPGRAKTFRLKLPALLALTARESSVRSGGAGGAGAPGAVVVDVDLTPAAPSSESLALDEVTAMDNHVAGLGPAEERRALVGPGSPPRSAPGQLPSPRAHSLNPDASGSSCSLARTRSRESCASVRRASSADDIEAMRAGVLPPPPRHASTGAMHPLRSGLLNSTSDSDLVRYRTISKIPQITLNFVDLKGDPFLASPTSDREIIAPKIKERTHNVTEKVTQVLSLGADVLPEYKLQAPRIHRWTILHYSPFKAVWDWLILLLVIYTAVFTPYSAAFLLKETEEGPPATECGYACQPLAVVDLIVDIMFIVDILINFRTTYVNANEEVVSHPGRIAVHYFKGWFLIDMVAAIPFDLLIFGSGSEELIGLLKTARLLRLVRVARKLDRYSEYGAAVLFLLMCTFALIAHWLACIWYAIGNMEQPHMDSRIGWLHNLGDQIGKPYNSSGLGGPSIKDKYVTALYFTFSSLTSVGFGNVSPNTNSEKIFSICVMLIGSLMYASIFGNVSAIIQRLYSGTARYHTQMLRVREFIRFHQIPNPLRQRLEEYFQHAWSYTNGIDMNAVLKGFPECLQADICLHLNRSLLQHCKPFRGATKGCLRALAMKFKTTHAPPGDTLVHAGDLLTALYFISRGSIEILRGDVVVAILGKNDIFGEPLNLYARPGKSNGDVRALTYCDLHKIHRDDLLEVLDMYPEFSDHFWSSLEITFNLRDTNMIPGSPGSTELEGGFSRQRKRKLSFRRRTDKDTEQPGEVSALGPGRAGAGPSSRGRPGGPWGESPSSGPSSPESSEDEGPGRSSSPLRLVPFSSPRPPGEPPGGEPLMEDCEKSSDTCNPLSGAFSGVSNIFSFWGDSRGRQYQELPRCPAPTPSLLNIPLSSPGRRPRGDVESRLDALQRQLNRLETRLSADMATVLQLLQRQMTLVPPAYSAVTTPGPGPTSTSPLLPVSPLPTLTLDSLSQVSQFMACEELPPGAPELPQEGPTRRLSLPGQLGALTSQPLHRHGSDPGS

The assay has as its target human ether-à-go-go-related gene (hERG) potassium channel (human, UniProt Q12809). Briefly: primary screen, population patch clamp on CHO cells stably expressing hERG.
Regarding `COC(=O)c1ccc(NC(=O)CC2C(=O)N(c3ccc(C)cc3)C(=O)N2CC(C)C)cc1` (centres unmarked), the “hERG current change (%, negative = inhibition) at 1uM” value is 3.4%.
Then `COc1ccc(N(C(=O)c2snc(C(N)=O)c2N)C(C(=O)NCC2CCCO2)c2ccc(C)o2)cc1OC` (centres unmarked), with 10.6%; and `COc1ccccc1N1CCN(C(=O)C2CCCN(S(=O)(=O)c3ccc(C)cc3)C2)CC1` (centres unmarked), with -4.08%.
Then `Fc1ccccc1-c1nc(-c2cnccc2C(F)(F)F)no1`, with 13.4%; and `OC(CNCc1ccccc1Cl)C(F)(F)F` (centres unmarked), with 8.99%; and `Cc1ccc(/C=C2/C(=O)NC(=O)N(CC3CCCO3)C2=O)s1` (centres unmarked), with -8.41%.
On to `COc1ccc(CCNC(=O)CCS(=O)(=O)c2ccc3c(c2)NC(=O)C(C)S3)cc1OC` (centres unmarked), for which the “hERG current change (%, negative = inhibition) at 1uM” value stood at 12.6%.
The result for `Cc1cccc(N2CCN(S(=O)(=O)c3c(C)noc3/C=C/N(C)C)CC2)c1C` reads 10.5%; that for `CNCCCC1c2ccccc2C=Cc2ccccc21.Cl`, 15.1%; that for `CCc1sc(C(=O)Nc2cccnc2)cc1Br`, 9.91%.
The result for `Cn1c(=O)[nH]c(=O)c2c1nc(CN1CCN(c3ccc(F)cc3)CC1)n2CCCc1ccccc1` reads -25.2%; that for `CCOc1ccc(/C(O)=C2\C(=O)C(=O)N(CCN(C)C)C2c2cccc(OC)c2OC)cc1Cl` (centres unmarked), 8.32%; that for `COC(=O)c1sc(NC(=O)COc2cccc(C)c2)nc1C`, 4.63%.
Then `COc1ccccc1CN(C)C(=O)CN1C(=O)c2ccccc2C1=O`, with 15.6%; and `O=C(N/N=C/c1c[nH]c2ccccc12)c1cccc(Cl)c1`, with 13.3%.
On to `OCC(Cc1ccc2c(c1)OCO2)C(CO)Cc1ccc2c(c1)OCO2` (centres unmarked), for which the “hERG current change (%, negative = inhibition) at 1uM” value is listed as 12.6%.
Then `C[NH+](C)CC(C)(C)CNS(=O)(=O)c1ccc(Cl)c(Cl)c1.[Cl-]`, with 10.5%.
Then `COC(=O)Cn1cc(/C=C(/C#N)C(=O)N2CCOCC2)c2ccccc21`, with 13.4%.
The result for `O=C(Cc1cn2ccsc2n1)Nc1ccccn1` reads 8.18%.
For `O=C(NC(=S)NNC(=O)c1cccs1)c1ccccc1`, the “hERG current change (%, negative = inhibition) at 1uM” value was -9.27%.
Then `O=C(Nc1ccccc1)Oc1ccc[nH]c1=O`, with 12.4%; and `CC1(C)CC(=O)C(C=NCCN2CCN(C(=O)Cc3ccccc3)CC2)=C(O)C1`, with -7.37%; and `COc1ccc(C=O)cc1COc1ccccc1F`, with 5.63%.
Consider `O=C(Nc1cccc2ccccc12)c1ccc(F)cc1`, for which the “hERG current change (%, negative = inhibition) at 1uM” value was found to be 8.22%.
As to `O=C1CN=C(c2ccccc2Cl)c2cc(Br)ccc2N1`, the “hERG current change (%, negative = inhibition) at 1uM” value was determined as 3.36%.
Then `CN(Cc1ccco1)c1ncnc2ccc(-c3ccccc3Cl)cc12`, with 8.44%; and `Cc1occc1C(=O)NCCCc1ccccc1`, with 11.2%; and `O=C(Cc1c(Cl)cccc1Cl)N1CCN(Cc2ccccc2)CC1`, with 15.5%.
The result for `CC(NC(=O)c1ccc2c(c1)OCO2)C(c1cccs1)N1CCN(c2ccccc2)CC1` (centres unmarked) reads 12.7%.
Then `Cc1cccc(C(=O)NC2CC3CCCC(C2)N3C(=O)Nc2ccccc2)c1` (centres unmarked), with 15.6%.
On to `CC(C)CN1CCCC(N2CCN(c3cccc(Cl)c3)CC2)C1` (centres unmarked), for which the “hERG current change (%, negative = inhibition) at 1uM” value was determined as 5.47%.
The result for `O=C(CSc1ncccn1)Nc1ccc2[nH]c(=O)[nH]c2c1` reads 7.29%; that for `N#CCCN(Cc1cccnc1)S(=O)(=O)c1ccc(S(=O)(=O)N2CCCCCC2)cc1`, 1.54%; that for `C=Cn1ccnc1P(=S)(c1ccc(Cl)cc1)c1nccn1C=C`, 7.58%.
The result for `COc1ccc(-c2csc(N3C(=O)CNC3=S)n2)cc1` reads 15.8%; that for `CC(C)(C)S(=O)(=O)/C(C#N)=C/c1sccc1C1OCCO1`, 14.9%.
The result for `Cc1ccc(NC(=O)C2CCCN2C(=O)OCc2ccccc2)c(O)c1` (centres unmarked) reads 21.6%; that for `CN(c1ccccc1)S(=O)(=O)c1nnc(NC(=O)COc2ccccc2F)s1`, 5.81%.
In the case of `CCN(CC)c1ccc(C(=O)OCC(=O)NC2CCCCC2C)cc1` (centres unmarked), the “hERG current change (%, negative = inhibition) at 1uM” value worked out at 6.91%.
As to `CC(C)C(CCNC(=O)CC(Cc1ccccc1)c1ccco1)c1ccco1` (centres unmarked), the “hERG current change (%, negative = inhibition) at 1uM” value is listed as -2.11%.
As for `CCCCCN1CC(O)=C(c2nc(-c3ccc(Cl)cc3)cs2)C1=N`, the “hERG current change (%, negative = inhibition) at 1uM” value is 11.4%.
For `COc1ccc(-c2cc(C#N)nc(N3CCNCC3)n2)cc1`, the “hERG current change (%, negative = inhibition) at 1uM” value was 0.443%.
As for `COc1ccc(CCNC(=O)C2CCN(C(=O)c3ccc([N+](=O)[O-])cc3)CC2)cc1`, the “hERG current change (%, negative = inhibition) at 1uM” value is -19.2%.
Then `COc1cc(C(=O)Nc2ccccc2N2CCN(S(C)(=O)=O)CC2)cc(OC)c1OC`, with -7.97%.
Then `Cc1ccc2cc(CN(CC3CCCO3)S(=O)(=O)c3ccccc3)c3nnnn3c2c1` (centres unmarked), with 0.733%; and `CS(=O)(=O)Nc1ccccc1C(=O)NCCSCc1ccccc1`, with 9.54%.
The result for `CCc1c(O)nc2sc3ccccc3n2c1=O` reads 4.81%; that for `CCOCCCN(C(=O)c1snc(C(N)=O)c1N)C(C(=O)NCCC(C)C)c1ccc(F)cc1` (centres unmarked), 4.24%; that for `Cc1c(C(=O)OCC(=O)c2ccc3c(c2)OCCO3)oc2ccccc12`, 5.03%.
In the case of `CC(C)Cc1nnc(NC(=O)CCC(=O)Nc2ccccc2)s1`, the “hERG current change (%, negative = inhibition) at 1uM” value is given as 8.61%.
Take `Cl.c1ccc2c(c1)CNC1(CCCCC1)C2`: the “hERG current change (%, negative = inhibition) at 1uM” value was found to be 5.12%.
Then `CC(=O)Nc1cccc(C(=O)OCC(=O)NC(=O)c2ccccc2)c1`, with 9.57%; and `COc1ccccc1CNC(=O)COC(=O)C1CC1`, with 14.1%; and `CCCc1oc(C(=O)O)cc1CN1CCOCC1.Cl`, with 13%.
The result for `O=C(N/N=C/CCc1ccccc1)c1ccc(CN2c3cccc4cccc(c34)S2(=O)=O)cc1` reads 6.94%; that for `N#CC(C#N)=Cc1cccn1-c1ccc(C(=O)O)cc1`, 8.4%.
Then `CCOC(=O)N1CCC(NC(=O)c2cc(C(=O)Nc3ccc(S(=O)(=O)N4CCCCC4)cc3)ccc2CO)CC1`, with 3.28%; and `CCc1cc(=O)oc2cc(C)cc(OC(C)C(=O)NCc3ccccn3)c12` (centres unmarked), with 11.7%.
Consider `C/C(=N/NC(=O)c1nnn(-c2nonc2N)c1COc1ccccc1)c1ccccc1Cl`, for which the “hERG current change (%, negative = inhibition) at 1uM” value is given as 14.1%.
Then `Cl.Clc1ccc(OCc2nnc(SCCN3CCCCC3)n2Cc2ccco2)cc1`, with -38.6%; and `COC(=O)c1ccc(Nc2nc(C)cc(=O)[nH]2)cc1`, with 1.84%.
Then `COc1cc(CNn2cnnc2)ccc1OCC(=O)NC(C)(C)C`, with 13.7%; and `O=C1NC(=O)N(Cc2ccccc2F)C1=O`, with 15.4%; and `Cc1[nH]c2ccccc2c1SCC(=O)Nc1nccs1`, with 7.38%.
The result for `CC1CN(C(=O)CSc2cn(CC(=O)N3CCOCC3)c3ccccc23)CC(C)O1` (centres unmarked) reads 7.96%; that for `CCC1CCCCN1CCCNC(=O)c1cn(C)c2ccc(S(=O)(=O)N3CCOCC3)cc2c1=O` (centres unmarked), 13.5%; that for `Cc1c(NC(=O)C2Cc3ccccc3CN2C(=O)c2ccco2)c(=O)n(-c2ccccc2)n1C` (centres unmarked), -4.41%.
Turning to `O=C(NC(=S)Nc1cc(S(=O)(=O)N2CCOCC2)ccc1N1CCOCC1)C1CCCC1`, the “hERG current change (%, negative = inhibition) at 1uM” value stood at 5.31%.
Then `COc1ccccc1/C=C1\CCCC2=C1Nc1nnnn1C2c1ccccc1OC` (centres unmarked), with 15.5%; and `CN1CCC(OC(=O)c2ccco2)CC1.Cl`, with 6.33%; and `CC[C@H](C)[C@H](NC(N)=O)C(=O)OCC(=O)NCc1ccc(Cl)cc1`, with 2.64%.
Then `CSc1cc(/C=N/O)c(SC)s1`, with -4.46%; and `CC(C)=CCN1CCN(Cc2cnc(C)s2)CC1CCO` (centres unmarked), with 11.4%; and `CCN(CC(=O)Nc1ccc(NC(C)=O)cc1)C(=O)CC1OC(=O)c2ccccc21` (centres unmarked), with 10.2%.
With `CCNC(=O)COc1cc(C)c(Cl)c(C)c1`, the “hERG current change (%, negative = inhibition) at 1uM” value is listed as 7.02%.
The result for `Cc1ccc(C(=O)NCCNC(=O)COc2ccccc2Cl)cn1` reads 8.7%; that for `COc1ccc(-n2c(SCC#N)nc3c(sc(=S)n3-c3ccccc3)c2=O)c(OC)c1`, 16.8%; that for `N/C(=N\N=C\c1ccco1)SC1CC(=O)N(c2ccc(C(=O)O)cc2)C1=O` (centres unmarked), 18.4%.
Then `O=C(c1ccccc1)c1ccc2nc(N3CCN(C(=O)c4ccco4)CC3)c3nncn3c2c1`, with 0.565%; and `COc1cccc(CNC(=O)C(CC(C)C)NC(=O)c2ccccc2C)c1` (centres unmarked), with 21.7%; and `O=C1C2C3C=CC(CNS(=O)(=O)c4ccccc4)(O3)C2C(=O)N1c1ccc(Cl)cc1` (centres unmarked), with -21.3%.
Then `Cc1ccc(C(=O)Nn2c(N)c(S(=O)(=O)c3ccc(C)cc3)c3nc4ccccc4nc32)cc1`, with -1.95%; and `CC(=O)Nc1ccc(SCCC2CCCCN2C)cc1` (centres unmarked), with 11.7%; and `CC(=O)N/N=C\c1ccccc1OC/C=C/c1ccccc1`, with 17.4%.
Take `COc1ccc(CNC(=O)c2cc3c(s2)CS(=O)C3)cc1` (centres unmarked): the “hERG current change (%, negative = inhibition) at 1uM” value stood at 14.7%.
Then `CCOC(=O)c1cc(NC(=O)c2ccccc2)c(=O)oc1-c1ccccc1`, with 3.12%.
Then `COc1ccc([C@H]2CC(=O)C=C(c3ccc(SC)cc3)C2)cc1`, with 13.6%; and `Cc1ccc(SCC(=O)Nc2ncc(C)s2)cc1`, with 6.5%.
Take `O=C(Oc1cccnc1)c1cc(S(=O)(=O)N2CCCCC2)ccc1Cl`: the “hERG current change (%, negative = inhibition) at 1uM” value was found to be 13.2%.
